According to PubChem BioAssay AID651820 (National Center for Advancing Translational Sciences (NCATS), 2012):
In all, about 340,000 compounds went through this assay and about 12,000 (3.5%) were called active. The inconclusive results got no clear call from the source; some entries with a clear call stand among them for comparison. Calls follow the shape of the dose curve; as a rule, active = well fitted inhibition curve with a large enough effect; inconclusive = small, poorly fitted or top-dose-only effect, or another doubt; inactive = no such curve, though single readings can be large or run the other way. No potency is given beside an inconclusive call; the fits are too rough.

Test: qHTS Assay for Inhibitors of Hepatitis C Virus (HCV)
Settings: Huh7.5.1 HCVcc-Cre (HCVcc is cell-culture hepatitis C virus) infection, luciferase reporter, 44 h; series mostly up to 41.8 µM
In short: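 Cells (1,000/well) were plated 4 h before compound, then infected with HCVcc-Cre virus (~0.5 moi). After 44 h further culture, infection was read as luciferase luminescence following a 15 min substrate incubation at room temperature.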
Potency is read from the fitted curve at half-maximal effect; tags tell the direction and shape of the fitted curve.

| Structure (SMILES) | Potency |
| --- | --- |
| O=C(C1CCCN(S(=O)(=O)c2cccc3nsnc23)C1)N1CCc2ccccc21 (configuration not stated) | inconclusive [inhibitor, partial curve] |
| O=C(c1ccccc1)c1ccc(OCC(O)CNCc2ccc(F)cc2)cc1 (configuration not stated) | inactive |
| COC(=O)c1cccc(Nc2nc(-c3ccncc3)nc3ccccc23)c1 | inconclusive [inhibitor, full curve] |
| COC(=O)c1cc(C(=O)Nc2cc(C)on2)cc([N+](=O)[O-])c1 | inactive |
| Cc1ccc(C(=O)N(CC(=O)NC2CCCC2)c2ccccc2C)s1 | inconclusive [inhibitor, single point] |
| COc1ccc(/C=C(/C(=O)Nc2ccccc2C(=O)NC(C)C)c2ccccc2)cc1 | inconclusive [inhibitor, single point] |
| COc1cc(/C=C/C(=O)c2ccc([N+](=O)[O-])o2)ccc1O | inconclusive [inhibitor, full curve, poor fit] |
| CCOc1ccc(NC(=O)CSc2nnc(-c3ccccc3Cl)n2Cc2ccco2)cc1 | inconclusive [inhibitor, single point] |
| C=CCNC(=O)c1cc(-c2ccncc2)nc2c(C)cc(C)cc12 | inconclusive [inhibitor, single point] |
| CCC(OC(=O)CCc1nc2ccccc2[nH]c1=O)C(=O)c1ccccc1 (configuration not stated) | inconclusive [inhibitor, full curve, poor fit] |
| O=C(/C=C/c1ccc(Cl)cc1)Nc1ccc(CN2CCOCC2)cc1 | inconclusive [inhibitor, full curve] |
| CCN(CC)C1=NS(=O)(=O)c2cc([N+](=O)[O-])ccc21 | inconclusive [inhibitor, single point] |
| CC(Sc1nnc2c(n1)[nH]c1ccccc12)C(=O)N(C)C1CCCCC1 (configuration not stated) | active: 6.31 µM |
| CSC(=NC#N)N1CCN(c2ccc([N+](=O)[O-])cc2)CC1 | inconclusive [inhibitor, single point] |
| O=S(=O)(c1ccccc1)c1nc(Nc2cccc(O)c2)sc1Cl | inconclusive [inhibitor, single point] |
| CC(Cl)C(=O)Nc1cc(C(F)(F)F)ccc1N1CCOCC1 (configuration not stated) | inactive |
| O=C(Nc1cccn(Cc2ccccc2Cl)c1=O)NC1CCCCC1 | inconclusive [inhibitor, single point] |
| Cc1cccc(N2CCN(C(=O)n3ccnc3)CC2)c1C | inconclusive [inhibitor, single point] |
| CN(c1ccccc1)S(=O)(=O)c1cccc(NC(=O)CN2CCc3ccccc3C2)c1 | inactive |
| O=S(=O)(c1ccccc1)N1CCN=C1SCc1ccccc1 | inactive |
| COC(=O)c1c(NC(=O)CSc2ccccc2N)sc(C)c1C | inconclusive [inhibitor, single point] |
| O=C(Nc1ccc(Cl)cc1)N1CC1 | inconclusive [inhibitor, single point] |
| COC(=O)c1cc(COc2ccc3c4c(c(=O)oc3c2)CCCC4)c(C)o1 | inconclusive [inhibitor, partial curve] |

| Structure (SMILES) | Potency |
| --- | --- |
| COc1cccc(NC(=O)CSc2nc3n[nH]c(C)c3c(=N)n2-c2cccc(OC)c2)c1 | active: 10 µM |
| COc1cccc(N/C(C)=C/C(=O)c2ccc(Br)cc2)c1 | inconclusive [inhibitor, single point] |
| CN1CCN(c2ccccc2NC(=O)c2ccc([N+](=O)[O-])cc2Cl)CC1 | inactive |
| C/C(=N\NC(=O)C1COc2ccccc2O1)c1ccccn1 (configuration not stated) | active: 4.47 µM |
| COc1ccc(-c2nnc(SCC(=O)Nc3sc4c(c3C#N)CCC4)n2CC2CCCO2)cc1 (configuration not stated) | inconclusive [inhibitor, partial curve] |
| CCCCCC(O)(CCN1CCCCC1)c1ccc(OCC)cc1 (configuration not stated) | inconclusive [inhibitor, partial curve] |
| O=C(Nc1ccc2c(c1)OCCO2)C(=O)c1c[nH]c2ccccc12 | inconclusive [inhibitor, single point] |
| COc1cc(CN2CCN(CCc3ccccc3)C(CCO)C2)cc(OC)c1 (configuration not stated) | inactive |
| CN(c1ccccc1)S(=O)(=O)c1ccc(C(=O)OCC(=O)NCc2ccco2)cc1 | inactive |
| COc1ccc(C(C(=O)NC2CCCC2)N(C(=O)c2snc(-c3ccc(F)cc3)c2N)c2ccc(OC)cc2)cc1 (configuration not stated) | inconclusive [inhibitor, partial curve] |
| CCN1C/C(=C\c2cccc([N+](=O)[O-])c2)C(=O)/C(=C/c2cccc([N+](=O)[O-])c2)C1 | active: 2.51 µM |
| Cc1cc(C(=O)OCC(=O)Nc2cc(C(F)(F)F)ccc2N2CCOCC2)c(C)o1 | inconclusive [inhibitor, partial curve, poor fit] |
| COc1cc(OC)cc(C(=O)OCC(=O)NC(c2ccccc2)c2ccccc2)c1 | inconclusive [inhibitor, single point] |
| C=CCn1c(C)cc(C(=O)CSc2nc3ccccc3o2)c1C | active: 22.4 µM |
| COc1ccc(N2CCN(C(=O)c3oc4ccccc4c3NC(=O)Cc3cccc(OC)c3)CC2)cc1 | inconclusive [inhibitor, single point] |
| O=C(c1ccco1)N1CCN(c2ccc([N+](=O)[O-])c(N3CCOCC3)c2)CC1 | inconclusive [inhibitor, single point] |
| COc1cccc(OCCCn2ccnc2)c1 | inconclusive [inhibitor, single point] |
| N#CCCNS(=O)(=O)c1ccc(C(=O)OCC2CCCCC2)cc1 | inconclusive [inhibitor, single point] |
| Cc1ccc(SC2CCN(C(=O)C3CCC(=O)N(C4CC4)C3)CC2)cc1 (configuration not stated) | inconclusive [inhibitor, partial curve] |
| C/C(=N\Nc1cc(C)nc(-c2ccccc2O)n1)c1ccccc1 | inconclusive [inhibitor, partial curve] |
| O=C(Oc1ccccc1/C=C\C(=O)c1cc2ccccc2o1)c1cccc(F)c1 | inconclusive [inhibitor, full curve, poor fit] |
| Cc1c(Cl)cccc1NC(=S)C(=C([O-])c1ccc(Cl)s1)[n+]1ccccc1 | inactive |
| NC(=O)C1=C[C@H](c2coc3ccccc3c2=O)C[C@H](OCc2ccc(CO)cc2)O1 | inconclusive [inhibitor, single point] |

| Structure (SMILES) | Potency |
| --- | --- |
| COc1cc(/C=C/C(=O)OCC(=O)NCc2ccc(F)cc2)ccc1O | inconclusive [inhibitor, partial curve] |
| CCCCC/C=N/NC(=O)c1[nH]c2ccc([N+](=O)[O-])cc2c1C | inconclusive [inhibitor, partial curve] |
| Cc1onc(-c2ccccc2)c1-c1ccc(S(N)(=O)=O)cc1 | inconclusive [inhibitor, partial curve] |
| C/C(N)=C(/C#N)C(=O)CSc1nc2ccccc2c(=O)n1Cc1ccc(F)cc1 | inactive |
| O=C(CCCCCNc1nc(=S)[nH]c2ccccc12)NCCC1=CCCCC1 | inconclusive [inhibitor, single point] |
| CCN(CC)CCCNc1nc2cc(OC)c(OC)cc2c2nc(-c3cccnc3)nn12 | inconclusive [inhibitor, single point] |
| CN(C)S(=O)(=O)N1CCN(CC(O)COc2ccc(-c3ccccc3)cc2)CC1 (configuration not stated) | inactive |
| COc1ccc(CNC(=O)CS(=O)(=O)Cc2nc(-c3cccc(OC)c3)oc2C)cc1 | inconclusive [inhibitor, partial curve] |
| OC(COC(c1ccccc1)c1ccccc1)CN1CCc2ccccc2C1 (configuration not stated) | inconclusive [inhibitor, partial curve] |
| COC(=O)C1=C(N)Oc2cc(C)n(Cc3ccco3)c(=O)c2C1c1cccc(Cl)c1 (configuration not stated) | active: 8.91 µM |
| CC1=C(CC(=O)O)c2cc(F)ccc2/C1=C\c1ccc(S(C)=O)cc1 (configuration not stated) | inconclusive [inhibitor, full curve, poor fit] |
| CCOc1ccc(NC(=O)CCCCCN2C(=O)[C@@H]3Cc4ccccc4CN3C2=O)cc1 | inconclusive [inhibitor, single point] |
| CCOC(=O)c1cccc(NC2c3ccccc3C(=O)N2Cc2ccco2)c1 (configuration not stated) | inconclusive [inhibitor, partial curve] |
| O=C(N[C@H](C(=O)O)c1ccccc1)C1CCC(Cn2cnc3ccccc3c2=O)CC1 (some centres not stated) | inconclusive [inhibitor, single point] |
| CCOc1ccccc1Nc1nnc(SCc2nnc(-c3cc(OC)c(OC)c(OC)c3)o2)s1 | inconclusive [inhibitor, partial curve] |
| c1ccc(-n2cnnc2SCc2cn3ccsc3n2)cc1 | inactive |
| Cc1cc(C=C2C(=O)NC(=O)NC2=O)c(C)n1-c1cccnc1 | inactive |
| COc1ccc(/C=C/C(=O)c2ccccc2)cc1Cn1nnc2ccccc21 | active: 3.55 µM |
| Cc1ccc(CNC(=O)C(=O)NCCC2CCCCN2S(=O)(=O)c2ccc(C)cc2)cc1 (configuration not stated) | inconclusive [inhibitor, partial curve, poor fit] |
| CC1CCN(S(=O)(=O)c2ccc(C(=O)Nc3sccc3C(N)=O)cc2)CC1 | inconclusive [inhibitor, single point] |
| Cc1c(C(=O)NN)nn(-c2ccc(Cl)cc2)c(=O)c1C#N | active: 14.1 µM |
